From PubChem BioAssay AID504339 (National Center for Advancing Translational Sciences (NCATS), 2011)
About 17,000 (4.4%) of roughly 390,000 compounds were called active. The inconclusive results got no clear call from the source; some entries with a clear call stand among them for comparison. The call rests on the fitted dose curve; in most records, active means well fitted inhibition curve with a large enough effect; inconclusive means small, poorly fitted or top-dose-only effect; inactive means no such curve, though single readings can be large or run the other way. Potencies of inconclusive entries are doubtful fits and often do not repeat.

molecular target: Lysine-specific demethylase 4A (Homo sapiens) (UniProt O75164); test: qHTS Assay for Inhibitors of JMJD2A-Tudor Domain; conditions: AlphaScreen JMJD2A-Tudor / H3K4me3 peptide binding; series mostly up to 114 µM; further: nearly all actives have a fitted effect of over 50% in size
Chain of UniProt O75164 (O75164 whole entry, looked up, the tested form may be a part): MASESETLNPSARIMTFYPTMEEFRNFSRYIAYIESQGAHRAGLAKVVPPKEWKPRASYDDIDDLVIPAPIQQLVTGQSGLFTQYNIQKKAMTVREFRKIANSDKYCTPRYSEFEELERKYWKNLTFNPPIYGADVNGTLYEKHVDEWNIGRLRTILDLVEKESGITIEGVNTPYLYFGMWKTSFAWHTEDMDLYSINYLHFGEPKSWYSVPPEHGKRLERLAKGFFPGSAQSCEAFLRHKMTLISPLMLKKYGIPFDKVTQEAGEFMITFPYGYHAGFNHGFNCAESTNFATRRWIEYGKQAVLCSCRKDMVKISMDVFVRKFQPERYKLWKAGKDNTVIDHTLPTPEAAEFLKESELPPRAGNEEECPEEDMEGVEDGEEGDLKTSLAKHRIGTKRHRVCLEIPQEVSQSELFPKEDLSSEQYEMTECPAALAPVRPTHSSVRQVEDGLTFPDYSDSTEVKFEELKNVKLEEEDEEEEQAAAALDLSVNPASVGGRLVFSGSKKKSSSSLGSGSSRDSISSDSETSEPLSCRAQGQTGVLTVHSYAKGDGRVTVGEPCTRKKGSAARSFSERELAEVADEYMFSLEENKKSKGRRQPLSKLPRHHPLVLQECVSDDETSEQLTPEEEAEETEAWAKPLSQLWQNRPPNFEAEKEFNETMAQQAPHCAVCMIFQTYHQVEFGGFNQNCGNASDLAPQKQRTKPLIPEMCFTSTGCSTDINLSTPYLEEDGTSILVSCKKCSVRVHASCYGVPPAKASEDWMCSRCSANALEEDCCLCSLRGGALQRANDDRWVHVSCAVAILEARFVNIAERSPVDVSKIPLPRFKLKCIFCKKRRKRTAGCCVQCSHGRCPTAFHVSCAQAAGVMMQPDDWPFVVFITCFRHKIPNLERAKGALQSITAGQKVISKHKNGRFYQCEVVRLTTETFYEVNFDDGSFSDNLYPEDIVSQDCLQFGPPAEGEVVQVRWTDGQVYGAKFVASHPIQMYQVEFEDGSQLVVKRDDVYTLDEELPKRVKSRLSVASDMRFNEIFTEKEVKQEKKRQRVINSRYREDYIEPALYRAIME
Potency means the concentration at half of the fitted maximal effect; tags describe the fitted curve by direction and shape.

Row | SMILES | Potency
1 | O=c1cc(O)c2c(=O)n(-c3ccccc3)c3c(c2o1)CCCCCC3 | inconclusive: 63.1 µM [inhibitor, partial curve, poor fit]
2 | CN(C)CCCN(C(=O)c1ccc(S(=O)(=O)N2CCCCCC2)cc1)c1nc2c(F)cc(F)cc2s1 | inconclusive: 63.1 µM [inhibitor, partial curve, poor fit]
3 | COc1ccc(-c2cc(=Nc3ccc(C)cc3)c3ccccc3o2)cc1 | inconclusive: 15.8 µM [inhibitor, full curve]
4 | CCN1CCN(Cc2ccc(NC(=O)c3cc(NC(=O)C4=NN(c5ccccc5)C(=O)C4)cc(OC)c3)cc2C(F)(F)F)CC1 | inconclusive: 14.1 µM [inhibitor, partial curve, poor fit]
5 | CCN(CC)S(=O)(=O)c1ccc2[nH]cc(C(=O)NCCCN3CCCCC3)c(=O)c2c1 | inconclusive: 12.6 µM [inhibitor, partial curve]
6 | CCOC(=O)CSc1nc2ccc(N)cc2s1 | inactive
7 | COc1ccccc1CNC(=O)CCCCn1c(=O)c2ccccc2n(CC(=O)Nc2c(C)cc(C)cc2C)c1=O | inactive
8 | Cc1ccc(N2CCN(C(=S)c3ccc(-c4cccc([N+](=O)[O-])c4)o3)CC2)cc1 | inconclusive: 2.82 µM [inhibitor, full curve]
9 | CCOc1cc(/C=N/NC(=O)c2cc(-c3cccnc3)nc3ccccc23)ccc1O | inactive
10 | Cc1ccc(S(=O)(=O)N2CCCC2C(=O)Nc2nc3ccccc3s2)cc1 (stereo not drawn) | inactive
11 | CC(=O)[C@]1(O)Cc2c(O)c3c(c(O)c2[C@@H](O[C@H]2C[C@H](N)[C@H](O)[C@H](C)O2)C1)C(=O)c1ccccc1C3=O | inconclusive: 44.7 µM [inhibitor, partial curve]
12 | CCOc1cc(/C=N/Nc2ccc(C(=O)O)cc2)ccc1OC(=O)c1ccccc1C | inconclusive: 50.1 µM [inhibitor, partial curve]
13 | CC1(C)Cc2ccccc2C(COc2ccccc2)=N1 | inconclusive: 44.7 µM [inhibitor, full curve]
14 | COc1ccc(OCC(O)CNC(=O)c2ccc(OC)cc2)cc1 (stereo not drawn) | inactive
15 | CCOc1ccc(-n2ccnc2SCC(=O)Nc2cccc3ccccc23)cc1 | inconclusive: 28.2 µM [inhibitor, full curve]
16 | CCOC(=O)c1c(C)[nH]c(O)c1C=Nc1ccc(C(F)(F)F)cc1 | inconclusive: 15.8 µM [inhibitor, full curve]
17 | COc1cc(CNCc2ccccn2)ccc1OCc1cccc(Cl)c1 | inconclusive: 56.2 µM [inhibitor, partial curve]
18 | Cc1c(C)n(CC(O)CN2C(=O)c3ccccc3S2(=O)=O)c2ccccc12 (stereo not drawn) | inconclusive: 39.8 µM [inhibitor, full curve]
19 | COc1ccc(-n2cc(-c3ccccc3)nc2SCC(=O)Nc2ccccc2C)cc1 | inconclusive: 28.2 µM [inhibitor, full curve]
20 | Nc1nc(CN2CCN(Cc3ccccc3)CC2)nc(Nc2ccc3c(c2)OCCO3)n1 | inconclusive: 35.5 µM [inhibitor, single point]
21 | CC(=O)Nc1ccc(-c2nc(C)c(C(C)=O)n2O)cc1 | inconclusive: 79.4 µM [inhibitor, single point]
22 | COc1ccccc1OCC(=O)N(Cc1cccs1)C1CCS(=O)(=O)C1 (stereo not drawn) | inactive

Row | SMILES | Potency
23 | COc1ccc(-c2c(-c3ccc(OC)nc3)c3ccccc3n2C)cc1 | inconclusive: 22.4 µM [inhibitor, partial curve]
24 | Nc1nc(-c2ccccn2)nc(N)c1Cc1ccc(Cl)cc1Cl | active: 89.1 µM
25 | CCOC(=O)c1ccccc1NC1c2ccccc2C(=O)N1C1CCN(C(=O)OCC)CC1 (stereo not drawn) | inactive
26 | CC(=O)c1cc(C(=O)N2CCc3c([nH]c4ccccc34)C2C2CCCCC2)[nH]n1 (stereo not drawn) | inconclusive: 79.4 µM [inhibitor, partial curve]
27 | COc1ccccc1-c1nc(C#N)c(N2CCN(Cc3ccccc3)CC2)o1 | inconclusive: 35.5 µM [inhibitor, partial curve]
28 | COc1ccccc1CNc1nc(-c2ccco2)nn1S(C)(=O)=O | inactive
29 | S=C(NCC1CCCO1)NC1CCCCC1 (stereo not drawn) | inactive
30 | CC(C)(C)[C@@H]1C=C(C(=O)N2CCN(Cc3ccccc3)CC2)O[C@H](OCc2ccc(CO)cc2)C1 | inactive
31 | O=C(O)C(=O)/C(=C\c1ccccc1)c1ccc2ccccc2n1 | inconclusive: 79.4 µM [inhibitor, partial curve]
32 | Cn1c(=O)[nH]c(=O)c2c1[nH]c(=S)n2Cc1ccc(Cl)cc1 | active: 3.16 µM
33 | CCCn1cc(S(=O)(=O)CC(=O)N2CCc3ccccc32)c2ccccc21 | inconclusive: 39.8 µM [inhibitor, single point]
34 | CC(C)(C)c1ccc(S(=O)(=O)NCc2ccccn2)cc1 | inactive
35 | CN(C)c1c(N)[nH]c2c(c1=O)c(=O)n(C)c(=O)n2C | inconclusive: 22.4 µM [inhibitor, single point]
36 | COc1ccc(/C(O)=C2/C(=O)C(=O)N(CC3CCCO3)C2c2cccc(O)c2)cc1 (stereo not drawn) | active: 50.1 µM
37 | COc1ccc(C(=S)N2CCOCC2)cc1OC(=O)c1ccccc1Cl | inconclusive: 50.1 µM [inhibitor, partial curve]
38 | CCN1C(=O)[C@@H]2[C@@H](c3ccc(-c4ccc5c(c4)OCO5)c(OC)c3)N3CCCC[C@@]3(C(=O)OC)[C@@H]2C1=O | inconclusive: 22.4 µM [inhibitor, partial curve]
39 | CCN(CC)c1ccc(NC(=O)c2cnn3c(C(F)F)cc(-c4ccccc4)nc23)cc1 | active: 8.91 µM
40 | CCOC(=O)c1c(NC(=O)CN2CCCCC2)sc(CN(C)C)c1-c1ccccc1 | inconclusive: 44.7 µM [inhibitor, partial curve]
41 | CCOc1ccccc1C(=O)OCC(=O)Nc1nnc(-c2ccccc2)o1 | inconclusive: 31.6 µM [inhibitor, single point]
42 | Cn1c(=S)[nH]c(=O)c2ncc(=O)[nH]c21 | active: 28.2 µM
43 | COc1ccc(N2CCN(C(=O)c3cccc(Cn4cc(Cl)cn4)c3)CC2)cc1 | inconclusive: 39.8 µM [inhibitor, partial curve, poor fit]
